{"source": "PubChem BioAssay AID504332", "about": "(National Center for Advancing Translational Sciences (NCATS), 2011)", "note": "Screen size: about 350,000 compounds; about 31,000 (8.9%) were called active. The inconclusive results got no clear call from the source; some entries with a clear call stand among them for comparison. The call rests on the fitted dose curve; in most records, active means well fitted inhibition curve with a large enough effect; inconclusive means small, poorly fitted or top-dose-only effect; inactive means no such curve, though single readings can be large or run the other way. Where the call is inconclusive, the potency comes from a doubtful curve fit. On the % scale 0 is the no-effect control and ±100 the full control effect; potency means the concentration at half of the fitted maximal effect; tags describe the fitted curve by direction and shape."}
{"target": "Histone-lysine N-methyltransferase EHMT2 (Homo sapiens) (UniProt Q96KQ7)", "sequence (Q96KQ7 whole entry, looked up)": "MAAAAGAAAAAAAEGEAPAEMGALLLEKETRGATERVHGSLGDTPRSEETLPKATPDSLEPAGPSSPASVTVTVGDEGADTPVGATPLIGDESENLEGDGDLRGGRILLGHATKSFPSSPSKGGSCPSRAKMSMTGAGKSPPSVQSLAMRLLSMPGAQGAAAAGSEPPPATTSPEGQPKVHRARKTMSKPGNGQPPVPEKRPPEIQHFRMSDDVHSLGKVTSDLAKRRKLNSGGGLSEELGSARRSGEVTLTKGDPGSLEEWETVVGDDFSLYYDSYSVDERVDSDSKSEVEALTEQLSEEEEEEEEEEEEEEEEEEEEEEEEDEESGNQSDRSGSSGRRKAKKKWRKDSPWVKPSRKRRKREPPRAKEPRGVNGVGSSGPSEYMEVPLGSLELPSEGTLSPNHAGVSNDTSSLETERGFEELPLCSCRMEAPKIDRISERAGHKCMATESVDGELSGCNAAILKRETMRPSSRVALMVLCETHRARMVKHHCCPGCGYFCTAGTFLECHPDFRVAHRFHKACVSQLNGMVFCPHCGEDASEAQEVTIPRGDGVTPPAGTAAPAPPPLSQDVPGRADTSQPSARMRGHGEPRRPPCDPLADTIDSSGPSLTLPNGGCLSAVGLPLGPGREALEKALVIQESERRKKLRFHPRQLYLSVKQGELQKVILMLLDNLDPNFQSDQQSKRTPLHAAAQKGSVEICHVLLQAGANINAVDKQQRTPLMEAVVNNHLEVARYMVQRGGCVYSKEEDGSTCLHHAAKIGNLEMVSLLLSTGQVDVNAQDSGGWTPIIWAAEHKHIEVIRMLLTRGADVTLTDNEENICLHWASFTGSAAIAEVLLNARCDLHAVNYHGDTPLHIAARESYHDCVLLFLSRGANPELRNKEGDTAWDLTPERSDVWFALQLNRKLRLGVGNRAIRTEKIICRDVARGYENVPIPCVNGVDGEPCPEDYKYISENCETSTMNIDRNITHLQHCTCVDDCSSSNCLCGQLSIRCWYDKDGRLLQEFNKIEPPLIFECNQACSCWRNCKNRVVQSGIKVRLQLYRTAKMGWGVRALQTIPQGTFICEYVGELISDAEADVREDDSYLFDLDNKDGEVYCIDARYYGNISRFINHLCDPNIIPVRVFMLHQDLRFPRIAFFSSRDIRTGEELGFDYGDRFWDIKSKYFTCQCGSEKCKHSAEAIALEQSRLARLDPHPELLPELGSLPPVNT", "assay": "qHTS Assay for Inhibitors of Histone Lysine Methyltransferase G9a; further: nearly all actives have a fitted effect of over 75% in size", "settings": "G9a H3K9 monomethylation, AlphaScreen, 2 h; activity, negative = inhibition: at 59 µM (top of the series) unless noted", "outline": "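Quantitative HTS format: methyltransferase activity on a biotin-tagged H3K9 peptide is measured by AlphaScreen, using a rabbit anti-monomethyl-H3K9 antibody with streptavidin donor and anti-IgG acceptor beads. Final levels are 20 nM enzyme, 500 nM peptide, 20 uM SAM; 2 h RT.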"}
{"smiles": "CCN1/C(=N\\N)c2cccc3cccc1c23", "Potency": "inactive"}
{"smiles": "COc1ccc(Nc2c3c(nc4ccc(NC(=O)c5cc(Cl)ccc5OC)cc24)CCCC3)cc1OC", "Potency": "inconclusive: 35.5 µM [inhibitor, partial curve, poor fit]"}
{"smiles": "Cc1ccccc1Nc1nc(N)nc(COC(=O)[C@@H](NC(=O)c2ccccc2Cl)C(C)C)n1", "Potency": "inactive"}
{"smiles": "O=c1c(Cc2c(F)cccc2Cl)c(O)ccn1CCc1c[nH]c2ccccc12", "Potency": "inconclusive: 44.7 µM [inhibitor, partial curve, poor fit]"}
{"smiles": "O=S(=O)(NCC(c1ccco1)N1CCc2ccccc2C1)c1ccc(Br)cc1", "note": "(configuration not stated)", "Potency": "inconclusive: 50.1 µM [inhibitor, partial curve, poor fit]"}
{"smiles": "CCOc1ccc(CC(=O)Nc2c(C(=O)c3ccc(F)cc3)oc3ccc(Cl)cc23)cc1OCC", "Potency": "inconclusive: 0.708 µM [inhibitor, partial curve, poor fit]"}
{"smiles": "CCOC(=O)c1cc2nc(-c3ccco3)cc(C(F)(F)F)n2n1", "Potency": "inconclusive: 28.2 µM [inhibitor, single point]"}
{"smiles": "Cc1nnc(SCC(=O)Nc2sc3c(c2C(=O)c2ccccc2)CCCC3)s1", "Potency": "inconclusive: 12.6 µM [inhibitor, single point]"}
{"smiles": "C#CCOCCOCCOCCNc1nc(N2CCN(C(=O)[C@H]([C@@H](C)CC)n3cc([C@@H](N)CC(C)C)nn3)CC2)nc(N2CCN(C(=O)[C@H](Cc3ccc(O)cc3)n3cc([C@@H](N)CC(C)C)nn3)CC2)n1", "activity, negative = inhibition": "inconclusive: -82.1% [inhibitor]"}
{"smiles": "Cc1ccc(-c2cc(C(=O)N/N=C/c3ccc(F)cc3)n[nH]2)o1", "Potency": "inactive"}
{"smiles": "Cc1[nH]c2ccccc2c1C(c1ccncc1)N1CCN(c2ccccc2F)CC1", "note": "(configuration not stated)", "Potency": "active: 11.2 µM"}
{"smiles": "COc1ccc(N2Cc3cccc(C(=O)Nc4cccc(F)c4)c3C2=O)cc1", "Potency": "inactive"}
{"smiles": "CC(=O)c1ccc(-c2ccc(C(=O)N3CCN(c4ccc(F)cc4)CC3)o2)cc1", "Potency": "active: 31.6 µM"}
{"smiles": "O=C(NC(Cc1c[nH]c2ccccc12)C(=O)O)c1ccc2c(c1)OCO2", "note": "(configuration not stated)", "Potency": "inconclusive: 100 µM [inhibitor, single point]"}
{"smiles": "Clc1ccsc1-c1ccc2ccccc2n1", "activity, negative = inhibition": "inactive: 10.8% [at 12.7 µM]"}
{"smiles": "COc1cc(CCC(=O)OCC(=O)Nc2ccc3c(c2)OCO3)cc(OC)c1OC", "Potency": "inconclusive: 89.1 µM [inhibitor, single point]"}
{"smiles": "O=C(Nc1cc(Cl)ccc1N1CCOCC1)c1ccc(Br)o1", "Potency": "active: 25.1 µM"}
{"smiles": "COc1ccc(C2CC(=O)Oc3c(C(CCN4CCN(c5ccccc5)CC4)c4ccc(N(C)C)cc4)c(OC)cc(OC)c32)cc1", "note": "(configuration not stated)", "activity, negative = inhibition": "inconclusive: -91% [inhibitor] [at 12.7 µM]"}
{"smiles": "CCNC(=S)N1CCC(n2cnc3ccccc32)CC1", "Potency": "inconclusive: 35.5 µM [inhibitor, partial curve, poor fit]"}
{"smiles": "COc1ccc(CCNc2ccncn2)cc1OC", "Potency": "inactive"}
{"smiles": "C#CCOCCOCCOCCNc1nc(N2CCN(C(=O)[C@H]([C@@H](C)CC)n3cc([C@@H](N)CC(C)C)nn3)CC2)nc(N2CCN(C(=O)[C@H]([C@@H](C)CC)n3cc([C@@H](N)CC(C)C)nn3)CC2)n1", "activity, negative = inhibition": "inconclusive: -84.6% [inhibitor]"}
{"smiles": "Cc1ccc(C(=O)/C=C/Nc2cccc(O)c2)cc1", "Potency": "inconclusive: 10 µM [inhibitor, partial curve]"}
{"smiles": "O=C(NC(=S)N1CCN(C2CCCCC2)CC1)c1ccccc1", "Potency": "active: 50.1 µM"}
{"smiles": "Cc1cc(NC(=O)C2CCCN(S(=O)(=O)c3cn(C)cn3)C2)ccc1Br", "note": "(configuration not stated)", "activity, negative = inhibition": "inactive: -2.02% [at 12.7 µM]"}
{"smiles": "CC12CCC(=O)N1C(C(=O)Nc1ccc(Cl)c(S(=O)(=O)N3CCCCC3)c1)CS2", "note": "(configuration not stated)", "Potency": "inconclusive: 79.4 µM [inhibitor, partial curve, poor fit]"}
{"smiles": "Cc1c(NC(=O)C(C)OC(=O)/C=C/c2ccco2)c(=O)n(-c2ccccc2)n1C", "note": "(configuration not stated)", "Potency": "inconclusive: 89.1 µM [inhibitor, single point]"}
{"smiles": "O=C(Nc1ccc(N2CCOCC2)cc1)C1CCCN(S(=O)(=O)c2ccccc2)C1", "note": "(configuration not stated)", "Potency": "inactive"}
{"smiles": "CCCCn1nc2cc(C(=O)NCc3ccc(OC)cc3)ccc2c1OCC", "Potency": "inconclusive: 79.4 µM [inhibitor, single point]"}
{"smiles": "O=C(O)C1CCCCC1C(=O)NCCCN1CCOCC1", "note": "(configuration not stated)", "Potency": "inactive"}
{"smiles": "Cc1ccc(C)c(NC(=O)c2cc(=O)c3ccccc3o2)c1", "Potency": "inconclusive: 79.4 µM [inhibitor, single point]"}
{"smiles": "COC/C=C/C1=CC2=CC(=O)C(C)(OC(=O)C3CCCC3)C(=O)C2=CO1", "note": "(configuration not stated)", "Potency": "inconclusive: 7.08 µM [inhibitor, single point]"}
{"smiles": "Cc1cc(Br)c2c(c1)C1(OCCO1)C(=O)N2", "Potency": "inactive"}
{"smiles": "COc1ccc(CN2C=C3C(=O)C(C)(OC(=O)CCc4ccccc4)C(=O)C=C3C=C2c2ccc(C#N)cc2)cc1", "note": "(configuration not stated)", "Potency": "inactive"}
{"smiles": "Cc1ccc(NC(=O)c2ccc(N(Cc3ccccc3)S(C)(=O)=O)cc2)cc1", "Potency": "inconclusive: 10 µM [inhibitor, partial curve, poor fit]"}
{"smiles": "CC(=O)N1CCc2cc(S(=O)(=O)NC(C(=O)NCc3ccccc3)C(C)C)ccc21", "note": "(configuration not stated)", "Potency": "inconclusive: 25.1 µM [inhibitor, partial curve, poor fit]"}
{"smiles": "O=C(Nc1cccc(NC(=O)c2cccs2)c1)c1ccc2c(c1)OCCO2", "Potency": "inconclusive: 44.7 µM [inhibitor, partial curve]"}
{"smiles": "COc1ccc(N(CC(=O)NCCSC(C)(C)C)S(C)(=O)=O)c(OC)c1", "activity, negative = inhibition": "inconclusive: -70.5% [inhibitor]"}
{"smiles": "CSc1nc(-c2cccs2)c(C#N)c(=O)[nH]1", "Potency": "active: 44.7 µM"}
{"smiles": "CC(=O)c1cccc(NC(=O)COc2nsnc2N2CCOCC2)c1", "Potency": "inconclusive: 89.1 µM [inhibitor, partial curve, poor fit]"}
{"smiles": "CC(C)(C)C(=O)Cn1c(=O)n(CC2CCCO2)c(=O)c2ccccc21", "note": "(configuration not stated)", "Potency": "inconclusive: 89.1 µM [inhibitor, partial curve, poor fit]"}
{"smiles": "COC(=O)CC1C(=O)NCCN1C(=O)CSc1nc2ccc([N+](=O)[O-])cc2s1", "note": "(configuration not stated)", "Potency": "inactive"}
{"smiles": "CN1/C(=C\\C(=O)CN2C(=O)NC3(CCCCCC3)C2=O)C(C)(C)c2ccccc21", "Potency": "inconclusive: 89.1 µM [inhibitor, single point]"}
